± gives the standard deviation of the averaged measurements. The list shows a part of the results.
Test system: PfAP2-EXP AP2 domain (GST-tagged)
Test: gcPBM binding intensity (ln(normalized median fluorescence intensity)); higher = stronger DNA binding
Summary of the method: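 An Agilent 4 × 180k array of primer-extended double-stranded 36-bp intergenic genomic probes, with negative controls, was incubated for 1 h with GST-tagged P. falciparum DNA-binding domains expressed in E. coli. Alexa488 anti-GST antibody detected bound protein, scanned at 488 nm. Binding intensity is the highest Masliner-normalised natural-log median intensity across replicate spots of either probe orientation.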

| Sequence | gcPBM binding intensity (ln) |
| --- | --- |
| ACATGATGTCATAAATGTACGCACACATACATAAAC [XGTACX_site1198] | 8.69 ± 0.31 |
| TCTTTTTAAATATATACACACCGTGTCTACAGATAC [CACACA_site5784] | 8.47 ± 0.4 |
| GAACATTTCACACAAAAAAAAAAAAATATATATATA [TGCATGCA_negctrl_site518] | 9.81 ± 0.33 |
| TACTAATATAATAAAAGTACTTAAATAAATATATGT [XGTACX_site2220] | 8.61 ± 0.42 |
| TCTAACATATTTTTAATACACACTTAAAAAAGTACT [CACACA_site1366] | 8.33 ± 0.34 |
| ATTTACATTATATTGAATATGCCATATTATATTATT [CACACA_negctrl_site811] | 8.6 ± 0.41 |
| AATGCTTTTCATCAAGTGCAATATGTTAATACAAAC [GTGCAC_site9619] | 8.59 ± 0.028 |
| AAAAAAAAAAATGGTTGTACTTTTTTTATTTGGTGC [XGTACX_site4498] | 8.49 ± 0.34 |
| GTAGACTGAAACCACACACACATATATAAATATATT [CACACA_site6433] | 8.59 ± 0.38 |
| TCTATATCAACCAGTTGTACTGAATTTACTATATTT [XGTACX_site4205] | 8.42 ± 0.34 |
| TATAAAAGTAGACACACACACATATAAATATAAATA [CACACA_site6567] | 8.84 ± 0.37 |
| ATATTATATTGGATGTTGCACTTAACAAAAGGATAT [GTGCAC_site9478] | 8.81 ± 0.22 |
| ATAGACTTTTGTTTTGTTTTATTTTATTGTATTGTA [CACACA_negctrl_site618] | 8.63 ± 0.54 |
| TGTATGTATAATTGAGTGCACAGAAAAAAAAAAGAA | 9.6 ± 0.17 |
| TAATTTTCATATTTCTGTACATATATTATAAATATA [XGTACX_site3480] | 8.29 ± 0.028 |
| AGAAAAAAAAAAAAAAAACACACGGTACATTCAAAG [CACACA_site2] | 8.61 ± 0.49 |
| TAATATATATATATTACACACACGTATTATTAAATA [CACACA_site432] | 8.69 ± 0.45 |
| AAAAAATATTTATGTTCACACATTTTATATATGATA [CACACA_site4821] | 8.41 ± 0.42 |
| TTTTTTTTTTGATGAGCACACATGTTTTTTCTTAGA [CACACA_site3171] | 8.46 ± 0.43 |

| Sequence | gcPBM binding intensity (ln) |
| --- | --- |
| AAATATTTTTAAAGAAGTACTTTTTAAAAATAATCT [XGTACX_site4897] | 8.54 ± 0.49 |
| AATAAATATATATACACACCCATATATATATATATA [CACACA_site2595] | 10.1 ± 0.42 |
| TCTTTGTTTTTTTTTTTTAAACAAAATCATCAAAGG [XGTACX_negctrl_site192] | 8.16 ± 0.53 |
| AAGATACACCTTTTTAGTACTTACATTTTTTTTATT [XGTACX_site1373] | 8.78 ± 0.4 |
| GCGTATACTTGTAACGGTACACAGGAAATTATAGAA [XGTACX_site507] | 8.82 ± 0.4 |
| TATATATATGGACACACACACACCAAAGCGTAGCGC [CACACA_site4209] | 8.88 ± 0.68 |
| TACACTTTTTTTTGTACACACTAAAAAGATTAACAA [CACACA_site6037] | 8.47 ± 0.26 |
| TAATGTTGTTTCTGAGGTACACAATTTTTTTTATTT [XGTACX_site8035] | 8.44 ± 0.38 |
| TTAATGAAATATTATACACACAAAAAAATAATTTTA [CACACA_site4231] | 8.42 ± 0.42 |
| ACCATACAGAATAATGCATGTTCCTTTTTATGAATA [TGCATGCA_site995] | 8.76 ± 0.38 |
| AAAAAAATAAAGGATATACACACTAATTATATATAT [CACACA_site2812] | 8.74 ± 0.26 |
| TATACTTGTAAATGCACACATAAGATGCGACTAATG [CACACA_site2118] | 8.62 ± 0.29 |
| CCAACATAGAGGGGCACACACATATATACCTAAAAA [CACACA_site5088] | 8.62 ± 0.51 |
| AAAATAATTGTTTACACACCCATTTGTAATTTTACC [CACACA_site3614] | 8.54 ± 0.37 |
| CTGTGTTTTGGTTGTACACACGCTACATTCTATATT [CACACA_site2698] | 9.16 ± 0.28 |
| AGATTATAAAATTCTACACACATATATACCTATATA [CACACA_site5848] | 8.25 ± 0.3 |
| ATTATATATATATAAACACACAAATATTTTTATATA [CACACA_site5005] | 8.31 ± 0.32 |
| TAATATTAATCCTAGTGTACATTAATTTATATGTAT [XGTACX_site3583] | 8.51 ± 0.45 |
| ACCTATATAAGTTATACACACAAATATAGATATATA [CACACA_site7356] | 8.38 ± 0.32 |

| Sequence | gcPBM binding intensity (ln) |
| --- | --- |
| TTTACAGAAAGTTACATACACACTAATATTTACACC [CACACA_site1009] | 8.69 ± 0.25 |
| ATTTAAGATTTAATCACACACATATAGATTATAGAC [CACACA_site7383] | 8.61 ± 0.33 |
| ATGAAGAAGTGTAAATGTACATTTTATGTAGAACAA [XGTACX_site6925] | 8.93 ± 0.48 |
| TTATTTTTTTTTTATTGTACTAGGAAAATTTCGATA [XGTACX_site702] | 8.36 ± 0.4 |
| TATAAGAGGATATATACACACAAAAATATGTACAGT [CACACA_site6885] | 8.73 ± 0.31 |
| TTTATATGTATTAAGTGTACACATATAATGTGTTTG [XGTACX_site6629] | 8.48 ± 0.27 |
| CTTCCTTAGGAATGTACACACATATATAATATGTTG [CACACA_site461] | 8.53 ± 0.4 |
| TACAGACAGAAATGCACACACATATTTATATTTATA [CACACA_site7139] | 8.59 ± 0.26 |
| AATAAAAAAGAATATACACACATAAATATAAAATAT [CACACA_site683] | 8.66 ± 0.46 |
| AATTAAAAAGAAAAAAGTACATATTTTTTTAAAAAA [XGTACX_site7384] | 8.46 ± 0.3 |
| AAATATATATTTCTTAGTACATATGTATTTTTTTTT [XGTACX_site938] | 8.54 ± 0.54 |
| ATATATATATATATGTGTACTAATAAGGTTAAATAA [XGTACX_site1535] | 10.1 ± 0.41 |
| TTTGACAAATTATTGTGTACACAATATTATTATATA [XGTACX_site8320] | 8.69 ± 0.21 |
| ACAAAATGTAGATATTGTACATATTGTAGATATTGT [XGTACX_site7619] | 8.46 ± 0.42 |
| ATATATATGCATAATACACACATCATATAATTAACC [CACACA_site1643] | 8.73 ± 0.35 |
| TTCATACATAGAAAATGTACATATATATATATATAT [XGTACX_site1895] | 10.1 ± 0.45 |
| AAAAAAAAAAACAATACATGCATAATATTAATAAAA [TGCATGCA_site913] | 8.76 ± 0.55 |
| AAGATATGTACTAATACACACACATATATATATATA [CACACA_site8249] | 10.1 ± 0.45 |
| TACAAAATATTTTACACACACATATAAATACAGATA [CACACA_site5447] | 8.72 ± 0.44 |

Source: the supplement of paper PMC11417369
